Among all 48,000 compounds or so, about 550 (1.1%) were called active. Roughly 4% stayed inconclusive and do not appear here. Cut-off read from the data, not from the text of the source: active = potency below about 15 µM; inconclusive = mostly about 16 µM to 33 µM; inactive = weaker than that. The list shows a part of the results.
Potency is the fitted concentration of half-maximal effect.

This experiment deals with Lysosomal acid glucosylceramidase (Homo sapiens) (UniProt P04062). In words: Glucocerebrosidase.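 Note: the screen sought inhibitors.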 The conditions noted are these: purified enzyme, resorufin glucoside fluorescence (screen aimed at inhibitors), 20 min. The method in brief: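 Wild-type enzyme at 0.2 nM final in 50mM citric acid/KH2PO4, 10mM sodium taurocholate, 0.01% tween-20, pH 5.9, with resorufin beta-D-glucopyranoside at 30 uM final. Compounds titrated, 20 min at RT, red fluorescence read; AC50 from titration.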
UniProt P04062, sequence (P04062 whole entry, looked up): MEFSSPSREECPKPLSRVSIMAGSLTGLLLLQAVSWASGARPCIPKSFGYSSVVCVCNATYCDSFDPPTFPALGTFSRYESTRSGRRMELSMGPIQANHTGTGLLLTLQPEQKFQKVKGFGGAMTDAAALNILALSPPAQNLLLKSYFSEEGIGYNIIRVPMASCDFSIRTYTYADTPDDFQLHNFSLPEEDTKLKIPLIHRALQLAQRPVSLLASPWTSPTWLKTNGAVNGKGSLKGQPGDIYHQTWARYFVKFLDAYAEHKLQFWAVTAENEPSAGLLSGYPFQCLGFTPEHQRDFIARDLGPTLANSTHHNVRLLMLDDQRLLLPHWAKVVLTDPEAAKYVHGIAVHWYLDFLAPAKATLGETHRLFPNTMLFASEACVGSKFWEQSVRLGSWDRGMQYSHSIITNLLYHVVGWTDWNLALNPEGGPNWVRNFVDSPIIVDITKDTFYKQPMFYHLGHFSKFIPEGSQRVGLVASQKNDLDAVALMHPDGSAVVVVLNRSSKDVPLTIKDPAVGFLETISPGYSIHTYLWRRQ
In the case of `CC1CN(CC(O)COc2ccccc2C(C)(C)C)CC(C)O1` (stereo not given), the Potency entry was “inactive”.

Consider `CCc1ccc(CCC(=O)Nc2ccc(C)cc2C)o1`, for which the Potency is inactive: > 76.9 µM. Under `COc1ccc(N(C(=O)Nc2ccc(Cl)cc2)C2=NCCC2)cc1` stands inactive: > 76.9 µM; under `CC(C)(C)OC(=O)N[C@@H](Cc1ccccc1)c1nnc(SCC(=O)O)o1`, inactive: > 76.9 µM. For the compound `COc1cccc(N2CCN(CC(=O)Nc3nc4c(s3)CC(C)CC4)CC2)c1` (stereo not given), the Potency is inactive: > 76.9 µM. Under `COc1ccc(C(=O)Nn2c(SCC(=O)NCc3ccco3)nc3ccccc3c2=O)cc1` stands inactive: > 76.9 µM.

Turning to `CCOC(=O)NC1(NCc2ccccc2)Oc2ccccc2O1`, the Potency is inactive: > 76.9 µM. Under `O=C(CN1C(=O)NC2(CCOc3ccccc32)C1=O)Nc1ccc2c(c1)OCCO2` (stereo not given) stands inactive: > 76.9 µM; under `COCCN(C(=O)CN1CCc2ccccc2C1)c1c(N)n(Cc2ccccc2)c(=O)[nH]c1=O`, inactive: > 76.9 µM.

As to `CC(=O)Nc1ccc(S(=O)(=O)NCC(C)NS(=O)(=O)c2ccc(NC(C)=O)cc2)cc1` (stereo not given), the Potency was inactive: > 76.9 µM. Next, `O=C(NCc1ccccn1)C1CCCN(S(=O)(=O)c2ccc(Br)cc2)C1` (stereo not given): inactive: > 76.9 µM; `COc1ccc(CCNC(=O)c2cnn(-c3ccc(C)c(C)c3)c2NC(=O)c2ccco2)cc1OC`: inactive: > 76.9 µM. Under `COc1ccccc1-n1cnnc1SCC(=O)Nc1ncc(Cl)cc1Cl` stands inactive: > 76.9 µM; under `COCCNC(=O)CSc1nc2ccc(N3CCOCC3)cc2c(=O)n1CCc1ccccc1`, inactive: > 76.9 µM. Under `O=C(Cc1ccccn1)Nc1ccccc1` stands inactive: > 76.9 µM.

For the compound `CSCCC(NC(=O)c1ccccc1)C(=O)NCc1ccco1` (stereo not given), the Potency is inactive: > 76.9 µM. For `CCOc1ccc2nc(NCCNC(=O)CC)c(C#N)cc2c1`, the Potency was inactive: > 76.9 µM.

Regarding `CCCn1nnc(NC(=O)c2cccc(OCC)c2)n1`, the Potency was inactive: > 76.9 µM.

As for `CC(Oc1cccc(Cl)c1)C(=O)Nc1cc(=O)n(C)c(=O)n1C` (stereo not given), the Potency was inactive: > 76.9 µM. Under `COc1ccccc1N1CCN(CCCNC(=O)Nc2ccccc2)CC1` stands inactive: > 76.9 µM; under `CC(=O)N(C)c1ccc(NC(=O)c2ccccc2C(=O)O)cc1`, inactive: > 76.9 µM; under `Cc1nnc(SCCCn2c(N3CCN(c4ccccc4)CC3)nc3c2c(=O)[nH]c(=O)n3C)s1`, inactive: > 76.9 µM. Regarding `Nc1nc(-c2ccc(Br)cc2)cs1`, the Potency is inactive: > 76.9 µM. In the case of `C=C(C)COc1ccc(-c2n[nH]c(C)c2-c2ccccc2OC)c(O)c1`, the Potency is inactive: > 76.9 µM. Under `Cc1ccc(CCN2CC(C(=O)NCc3ccco3)CC2=O)cc1` (stereo not given) stands inactive: > 76.9 µM. In the case of `O=C(Nc1n[nH]c(C2CCCCC2)n1)C1CCCCC1`, the Potency is inactive: > 76.9 µM.

As to `O=C1CC(c2ccccc2)CC2=C1CN(C1CCCCC1)CN2` (stereo not given), the Potency was inactive: > 76.9 µM. Turning to `Cc1ccc(OCC(O)Cn2c(NCCc3ccccc3)nc3c2c(=O)[nH]c(=O)n3C)cc1` (stereo not given), the Potency was inactive: > 76.9 µM.

As to `CN(Cc1ccncc1)C1CC(=O)N(c2ccc(Cl)cc2)C1=O` (stereo not given), the Potency was inactive: > 76.9 µM. Under `COc1ccc(C(=O)N2CCN(c3cccc(Cl)c3)CC2)c(OC)c1` stands inactive: > 76.9 µM; under `Cn1c(NCc2ccco2)nc2c1c(=O)n(Cc1ccc(Cl)cc1)c(=O)n2C`, inactive: > 76.9 µM; under `O=C(CCc1ccc(S(=O)(=O)N2CCOCC2)cc1)NCCc1ccccn1`, inactive: > 76.9 µM. For the compound `Cc1cc(O)ccc1Nc1nc(-c2sc(N)nc2C)cs1`, the Potency was inactive: > 76.9 µM.

On to `CC1(C)CC(=O)c2c(nn(-c3ccccc3)c2N)C1`, for which the Potency was inactive: > 76.9 µM. On to `[O-][N+]1=C(c2cccs2)CN(O)C1`, for which the Potency was inactive: > 76.9 µM. Next, `COc1ccc(N2C(=O)CC(NC34CC5CC(CC(C5)C3)C4)C2=O)c(OC)c1` (stereo not given): inactive: > 76.9 µM; `COCCCn1c(=N)c(C(=O)NCc2ccc3c(c2)OCO3)cc2c(=O)n3cccc(C)c3nc21`: inactive: > 76.9 µM.

Take `Cc1cc(C)cc(Nc2ncc3c(n2)CCCC3=O)c1`: the Potency is inactive: > 76.9 µM. On to `O=C1COc2cccnc2N1`, for which the Potency was inactive: > 76.9 µM. On to `Cc1cc(-n2c(SCCC#N)nnc2-c2cccnc2)ccc1Cl`, for which the Potency was inactive: > 76.9 µM. `COc1cccc(Oc2cn[nH]c2-c2ccc(O)cc2O)c1`: the Potency was inactive: > 76.9 µM.

In the case of `COc1ccc(CNC(=O)C2CCN(S(=O)(=O)c3ccc(-c4nn[nH]n4)cc3)CC2)cc1`, the Potency was inactive: > 76.9 µM. Next, `c1ccc(OCc2nnc3sc(-c4cccs4)nn23)cc1`: inactive: > 76.9 µM; `Cc1cc(NC(=O)CSc2nnc(CNc3cccc(C(F)(F)F)c3)n2Cc2ccco2)no1`: inactive: > 76.9 µM. For `CCc1nnc(NC(=O)c2cc3ccccc3oc2=O)s1`, the Potency was inactive: > 76.9 µM. Next, `CCOC(=O)c1ccc(NC(=O)c2ccc3c(c2)OCO3)cc1`: inactive: > 76.9 µM; `CNC(=O)CSc1nnc(-c2cccc(S(=O)(=O)N3CCOCC3)c2)n1-c1ccc(F)cc1`: inactive: > 76.9 µM; `CC(=O)N(CCO)Cc1cc2cc(C)cc(C)c2[nH]c1=O`: inactive: > 76.9 µM. Next, `Cc1ccc(S(=O)(=O)CCC(=O)OCC(=O)N2CC(=O)Nc3ccccc32)cc1`: inactive: > 76.9 µM; `Cc1cc(OCn2ccc(C(=O)O)n2)ccc1Cl`: inactive: > 76.9 µM. Next, `CC(=O)Nc1ccc(S(=O)(=O)N2CCSC2c2ccccc2Cl)cc1` (stereo not given): “inactive”; `COc1ccc(N2CCN(c3nc(NCCc4ccc(OC)c(OC)c4)nc(OC)n3)CC2)cc1`: inactive: > 76.9 µM; `c1coc(-c2nc3c4c5c(sc4ncn3n2)CCCC5)c1`: inactive: > 76.9 µM.

For the compound `O=c1cc(N2CCc3ccccc3C2)[nH]c(=O)n1Cc1ccc(F)cc1`, the Potency is inactive: > 76.9 µM. Next, `Cn1c(=O)[nH]c(=O)c2c1nc(NCc1ccccc1)n2CCCc1ccccc1`: inactive: > 76.9 µM; `CCCNS(=O)(=O)c1ccc(CCC(=O)N2CCC(C)CC2)cc1`: inactive: > 76.9 µM.

As for `CCOc1ccccc1CNC(=O)C1CCCN(c2nc3ccccc3o2)C1` (stereo not given), the Potency is inactive: > 76.9 µM.

In the case of `CCC(C)c1ccc(O)c(N)c1` (stereo not given), the Potency was inactive: > 76.9 µM.

In the case of `Cn1c(C(=O)NCc2ccccn2)cc2c(=O)n3ccccc3nc21`, the Potency is inactive: > 76.9 µM. Under `O=C(NCCc1ccccc1)C1CCN(S(=O)(=O)c2cccs2)CC1` stands inactive: > 76.9 µM. Next, `Cc1ccc(-c2ccc(=O)n(CC(=O)NCCCN3CCCCC3)n2)cc1`: inactive: > 76.9 µM. Under `N#CCSc1nc(Nc2ccc3c(c2)OCO3)c2ccccc2n1` stands “inactive”; under `CCC(C)(C)n1nnnc1C(c1cc2cc(C)cc(C)c2[nH]c1=O)N1CCCC1` (stereo not given), inactive: > 76.9 µM; under `O=c1oc2c(CN3CCOCC3)c(O)ccc2c2c1CCC2`, inactive: > 76.9 µM. Turning to `CCn1nnnc1SCC(=O)NCc1ccco1`, the Potency was inactive: > 76.9 µM. For the compound `c1coc(CNC2CCCCCCC2)c1`, the Potency is inactive: > 76.9 µM. `Cc1nc(N2CCN(Cc3ccccc3)CC2)nc2c1C(=O)CCC2`: the Potency is inactive: > 76.9 µM. Next, `Nc1nncn1C(=O)c1cc(Br)ccc1Cl`: inactive: > 76.9 µM. Under `Cc1csc(Sc2nc3c(c(=O)[nH]c(=O)n3C)n2CCCc2ccccc2)n1` stands inactive: > 76.9 µM.

`CCn1c(N)c(C(=O)NC2CCCCC2)sc1=S`: the Potency is inactive: > 76.9 µM. Under `COc1ccccc1N1CCN(C(=O)CN(c2cc(C)cc(C)c2)S(C)(=O)=O)CC1` stands inactive: > 76.9 µM; under `O=C(NCc1ccco1)c1nn(-c2ccccc2)c(=O)c2ccccc12`, inactive: > 76.9 µM; under `NC(=O)c1c(NC(=O)Cc2cccs2)sc2c1CCC2`, inactive: > 76.9 µM. Under `CCc1ccc(C2C3=C(CC(C)(C)CC3=O)Nc3c2c(=O)[nH]c2nc(C)nn32)cc1` (stereo not given) stands inactive: > 76.9 µM.

Take `CN(C)c1ccc(-c2nnc(-c3ccc(S(=O)(=O)C(F)F)cc3)o2)cc1`: the Potency is inactive: > 76.9 µM.

Regarding `CC(=O)c1cccc(NC(=O)COc2ccc(S(=O)(=O)N3CCCCC3)cc2)c1`, the Potency was inactive: > 76.9 µM. Next, `Cc1ccnc(NC(=O)c2cc(S(=O)(=O)N3CCCCC3)ccc2Cl)c1`: inactive: > 76.9 µM; `C=CCNC(NC(=O)c1ccccc1)(C(=O)OCC)C(F)(F)F` (stereo not given): inactive: > 76.9 µM. Under `CCOc1ccccc1C(=O)Nc1ccc2nc(N3CCN(c4ncccn4)CC3)cc(C)c2c1` stands inactive: > 76.9 µM; under `CCN(C(=O)CSc1nc2cc(C(=O)OC)ccc2c(=O)n1Cc1ccco1)c1cccc(C)c1`, inactive: > 76.9 µM.

For `Cn1c(C2=C(O)CN(c3ccc4c(c3)OCCO4)C2=N)nc2ccccc21`, the Potency was inactive: > 76.9 µM.

Take `CCC(C)NC(=O)C1CCN(C(=O)N(C)C)CC1` (stereo not given): the Potency is inactive: > 76.9 µM.

`COc1cc(Cl)c(C)cc1NC(=O)COc1cc(C)nc(C(C)C)n1`: the Potency was inactive: > 76.9 µM. Under `COc1ccccc1NC(=O)N1CCCC1C(=O)NCc1ccc(F)cc1` (stereo not given) stands inactive: > 76.9 µM. For `Cc1ccc(C)c(NC(=O)Cn2nc(C)c3ccccc3c2=O)c1`, the Potency was inactive: > 76.9 µM.

Consider `Cc1cc(NC(=O)CSc2nc(-c3ccco3)cc(C(F)(F)F)n2)no1`, for which the Potency was inactive: > 76.9 µM. Next, `Cc1ccc(S(=O)(=O)NCCNC(=O)N2CCOCC2)cc1`: inactive: > 76.9 µM; `CNC(=O)NC(=O)COC(=O)CCCOc1ccc(OC)cc1`: inactive: > 76.9 µM; `Cn1nnnc1SCC(=O)Nc1ccc(Br)cc1Cl`: inactive: > 76.9 µM. Consider `O=C(CC(c1ccco1)C1CCCCC1=O)c1ccco1` (stereo not given), for which the Potency is inactive: > 76.9 µM.

Source of the values: PubChem BioAssay AID360 (National Center for Advancing Translational Sciences (NCATS), 2006).
